# Patent publication US7345051B2, “Mucin synthesis inhibitors” (Genaera Corporation, priority 2000, dated 2008)
# Test system: CF mice (CF knock-out mice and CF ΔF508 mice)
# Test: CF mice on talniflumate containing chow: body weight and survival
# Conditions: approximate dose of 100 mg/kg per os, sacrificed at that time
smiles,measurement,value
"O=C1OC(OC(=O)c2cccnc2Nc2cccc(C(F)(F)F)c2)c2ccccc21 (stereo not shown) [Talniflumate, talniflumate]",survival,at least 26 days
